# Assay results published in the supplement of paper PMC9174493.
# Some of the results follow. Single values of this set are uncertain. Values with irradiation are relative to irradiated vehicle.
# Key:
# [1] = test system: A549-Dual; experiment: NF-kB reporter (SEAP) activity, viability-corrected, relative to vehicle (fold change vs vehicle); higher = more activation of STING-IRF / NF-kB immune response reporter
# [2] = test system: A549-Dual; experiment: ISRE reporter (Lucia luciferase) activity, viability-corrected, relative to vehicle (fold change vs vehicle); higher = more activation of STING-IRF / NF-kB immune response reporter
# 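Throughout, for NF-kB reporter (SEAP) activity, viability-corrected, relative to vehicle: viability correction based on the alamar blue assay, with concentrations leaving 10% survival or less dropped.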
SMILES,"NF-kB reporter ([1]; 0.1 µM, irradiation: 8 Gy/4 fr)","NF-kB reporter ([1]; 0.1 µM, irradiation: none)","NF-kB reporter ([1]; 0.3 µM, irradiation: 8 Gy/4 fr)","NF-kB reporter ([1]; 0.3 µM, irradiation: none)","NF-kB reporter ([1]; 1 µM, irradiation: 8 Gy/4 fr)","NF-kB reporter ([1]; 1 µM, irradiation: none)","NF-kB reporter ([1]; 3 µM, irradiation: 8 Gy/4 fr)","NF-kB reporter ([1]; 3 µM, irradiation: none)","NF-kB reporter ([1]; 10 µM, irradiation: 8 Gy/4 fr)","NF-kB reporter ([1]; 10 µM, irradiation: none)","ISRE reporter ([2]; 0.1 µM, irradiation: 8 Gy/4 fr)","ISRE reporter ([2]; 0.1 µM, irradiation: none)","ISRE reporter ([2]; 0.3 µM, irradiation: 8 Gy/4 fr)","ISRE reporter ([2]; 0.3 µM, irradiation: none)","ISRE reporter ([2]; 1 µM, irradiation: 8 Gy/4 fr)","ISRE reporter ([2]; 1 µM, irradiation: none)","ISRE reporter ([2]; 3 µM, irradiation: 8 Gy/4 fr)","ISRE reporter ([2]; 3 µM, irradiation: none)","ISRE reporter ([2]; 10 µM, irradiation: 8 Gy/4 fr)","ISRE reporter ([2]; 10 µM, irradiation: none)"
Cc1cncc(CN2CCC(=C3c4ccc(Cl)cc4CCc4cccnc43)CC2)c1.O=C(O)/C=C/C(=O)O [Rupatadine Fumarate],0.934,1.17,0.803,1.1,0.706,0.763,0.593,0.826,0.48,0.809,0.79,0.792,0.68,0.741,0.571,0.939,0.516,0.914,0.285,0.855
CCNC(=O)C1CCCN1C(=O)C(CCCNC(=N)N)NC(=O)C(CC(C)C)NC(=O)C(CC(C)C)NC(=O)C(Cc1ccc(O)cc1)NC(=O)C(CO)NC(=O)C(Cc1c[nH]c2ccccc12)NC(=O)C(Cc1cnc[nH]1)NC(=O)C1CCC(=O)N1 (stereo not given) [Leuprorelin Acetate],0.872,0.929,0.758,0.725,0.865,0.858,0.815,0.925,0.839,0.855,0.929,1.17,0.871,0.851,0.921,0.976,0.916,0.791,0.945,0.783
Nc1nc(Cl)nc2c1ncn2C1CC(O)C(CO)O1 (stereo not given) [Cladribine],0.909,0.93,0.858,0.869,0.776,1.15,2.07,3.76,1.76,3.17,0.946,0.996,1.04,1.07,0.762,1.96,0.681,4.03,0.497,2.66
CNCC(O)C(O)C(O)C(O)CO.Cc1c(Nc2ncccc2C(=O)O)cccc1C(F)(F)F [Flunixin Meglumin],0.909,1.15,0.978,1.12,1.14,0.889,1.38,0.926,0.924,0.839,0.998,0.967,0.752,0.845,0.785,0.919,0.843,0.904,0.681,0.888
CN(C)CCOC(c1ccccc1)c1ccccc1.Cl [Diphenhydramine HCl],1.04,0.853,0.98,0.989,1.17,0.848,0.77,0.927,0.832,1.01,1.06,0.981,0.856,1.03,1.07,0.927,0.885,1.07,1.08,0.923
O=C(O)C1OC(Oc2cc3oc(-c4ccccc4)cc(=O)c3c(O)c2O)C(O)C(O)C1O (stereo not given) [Baicalin],1.05,1.25,1.11,1.19,1.17,1.01,1.35,1.2,0.843,1.27,1.09,1.08,0.897,1.08,0.868,0.861,0.774,0.728,0.664,0.708
CC(C)(C)C(=O)Oc1ccc(S(=O)(=O)Nc2ccccc2C(=O)NCC(=O)O)cc1 [Sivelestat (ONO-5046)],0.955,0.947,0.843,1.22,0.837,1.63,0.853,1.26,0.854,1.01,1.06,1.12,0.879,1.12,0.907,1.15,0.935,0.919,0.989,0.814
Cc1ccc(C(C)C)cc1 [p-Cymene],1.19,1.33,1.08,1.16,1.3,0.892,1.59,0.958,0.843,1.74,1.11,1.17,0.959,1.07,0.964,0.879,0.831,0.918,1.06,0.888
COc1ccnc(CS(=O)c2nc3ccc(-n4cccc4)cc3[nH]2)c1C (stereo not given) [Ilaprazole],1.09,1.47,1.15,1.77,1.2,1.11,1.31,1.17,1.21,1.15,1.09,1.18,0.916,1.09,1.01,0.919,0.999,1.15,0.964,1.51
COc1ccc2cc1Oc1ccc(cc1)CC1c3cc(c(OC)cc3CCN1C)Oc1c(OC)c(OC)cc3c1C(C2)N(C)CC3 (stereo not given) [Tetrandrine],1.06,0.946,1.21,0.931,1.15,0.852,0.745,1.03,0.723,0.678,1.14,1.02,1.01,1.14,1.11,0.87,0.744,1.78,0.844,2.91
Nc1cc(C(Cl)=C(Cl)Cl)c(S(N)(=O)=O)cc1S(N)(=O)=O [Clorsulon],1.39,1.25,1.05,1.73,1.1,1.79,1.22,1.35,1.05,1.09,1.18,1.29,1.11,1.24,1.07,1.17,1.21,0.979,1.14,1.09
Nc1c(CC(=O)[O-])cccc1C(=O)c1ccc(Br)cc1.[Na+] [Bromfenac Sodium],1.25,1.09,1.01,0.833,1.3,0.975,1.1,0.933,1.07,1.02,1.13,0.837,0.962,0.677,0.686,0.661,0.744,0.917,0.791,0.882
